Measured values reported in the BET-seq Pho4 binding data (Le et al. 2018).
The other results are listed elsewhere or left out. Values were computed here from the reads of four pooled replicates and scatter widely.

What follows are sequences tested against T1, Pho4 (S. cerevisiae) (UniProt P07270) (assay: relative binding free energy (BET-seq); higher = weaker binding). Details: reference: library average.
T1 sequence: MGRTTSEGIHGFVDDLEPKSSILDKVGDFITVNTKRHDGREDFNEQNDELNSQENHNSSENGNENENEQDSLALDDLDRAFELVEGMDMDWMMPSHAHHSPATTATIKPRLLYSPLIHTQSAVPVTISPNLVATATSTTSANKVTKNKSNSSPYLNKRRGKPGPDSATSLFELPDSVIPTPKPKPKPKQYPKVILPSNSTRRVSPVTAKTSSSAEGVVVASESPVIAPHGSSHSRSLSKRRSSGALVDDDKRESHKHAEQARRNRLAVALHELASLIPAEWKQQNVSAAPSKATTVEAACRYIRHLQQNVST

| Sequence | relative binding free energy |
| --- | --- |
| ATGGTCACGTGGGACT | 0.08 kcal/mol |
| TTAGGCACGTGGTATT | -0.11 kcal/mol |
| TTAATCACGTGTAAGA | 0.23 kcal/mol |
| AGCTACACGTGAGTGT | 0.19 kcal/mol |
| TCTTTCACGTGTGTAA | 0.34 kcal/mol |
| ATCGGCACGTGAATTG | 0.21 kcal/mol |
| TTTGTCACGTGGGCGA | -0.15 kcal/mol |
| GTCAGCACGTGCAGGT | 0.03 kcal/mol |
| ATCTGCACGTGGTGCT | -0.03 kcal/mol |
| TAGATCACGTGAGTAG | 0.3 kcal/mol |
| GTTCCCACGTGAGGGG | 0.13 kcal/mol |
| TGTATCACGTGTAGAA | 0.13 kcal/mol |
| GCTGTCACGTGTATTA | 0.23 kcal/mol |
| GTTTGCACGTGGCATT | -0.08 kcal/mol |
| AGTAACACGTGGCGGT | -0.01 kcal/mol |
| CTGGTCACGTGATCTG | 0.24 kcal/mol |
| AGTGACACGTGTTGCT | 0.02 kcal/mol |
| ATAGTCACGTGGGATG | 0.01 kcal/mol |
| TTGGTCACGTGTGTCT | 0.19 kcal/mol |
| TGGCACACGTGGGGAT | -0.08 kcal/mol |
| TGGTCCACGTGTGACG | 0.27 kcal/mol |

| Sequence | relative binding free energy |
| --- | --- |
| TGAATCACGTGGGACG | 0.14 kcal/mol |
| GGTCGCACGTGTTTTA | -0.01 kcal/mol |
| GTTAGCACGTGTCAGG | -0.08 kcal/mol |
| GGAGTCACGTGGAGGT | 0.21 kcal/mol |
| GTTTGCACGTGCTTTT | 0.09 kcal/mol |
| GTAGGCACGTGGTTTA | -0.21 kcal/mol |
| GAAGCCACGTGGAGGT | -0.02 kcal/mol |
| AGTTTCACGTGATCTG | 0.21 kcal/mol |
| GGGGTCACGTGGTTAT | 0.13 kcal/mol |
| TGGGCCACGTGGATTT | -0.07 kcal/mol |
| ATGTACACGTGGAAAG | 0.12 kcal/mol |
| GGTGTCACGTGTATTC | 0.12 kcal/mol |
| TTTTTCACGTGCGCTG | 0.3 kcal/mol |
| TTTAGCACGTGTCCTT | -0.02 kcal/mol |
| ATGGACACGTGACGGT | 0.05 kcal/mol |
| GCTATCACGTGGGTGA | 0.07 kcal/mol |
| TTTTTCACGTGGGATA | 0.25 kcal/mol |
| ATTATCACGTGCGCGT | 0.03 kcal/mol |
| TTGCGCACGTGGGTTC | -0.3 kcal/mol |
| ATATACACGTGTTCTT | 0.09 kcal/mol |
| AGGCGCACGTGTGGTT | -0.07 kcal/mol |

| Sequence | relative binding free energy |
| --- | --- |
| TGATTCACGTGATTCG | 0.26 kcal/mol |
| CATTTCACGTGAGGGG | 0.42 kcal/mol |
| GGTGTCACGTGCAGGG | 0.22 kcal/mol |
| CGGGTCACGTGAACGG | 0.33 kcal/mol |
| TTTCGCACGTGGCTGT | -0.19 kcal/mol |
| TCTGACACGTGTGATT | 0.13 kcal/mol |
| TGGTGCACGTGTGATC | 0.13 kcal/mol |
| TGAGACACGTGAAGGG | 0.29 kcal/mol |
| ATTTTCACGTGACTAG | 0.22 kcal/mol |
| AGTAACACGTGATAGG | 0.06 kcal/mol |
| TTATTCACGTGTAAGC | 0.35 kcal/mol |
| GATGGCACGTGTTGAC | 0.18 kcal/mol |
| ATTTGCACGTGATCAT | -0.03 kcal/mol |
| GGGATCACGTGATTTA | 0.34 kcal/mol |
| ATTATCACGTGCAGGG | 0.02 kcal/mol |
| AGTGGCACGTGTTCTT | -0.09 kcal/mol |
| GCTATCACGTGTGTGG | 0.24 kcal/mol |
| GCGATCACGTGTGGTG | 0.12 kcal/mol |
| CATGTCACGTGCTGGG | 0.09 kcal/mol |
| ATCGTCACGTGTGGTA | -0.02 kcal/mol |
| GTGTACACGTGGCTAT | -0.07 kcal/mol |
